Results taken from a collection of fitness landscapes (doi:10.1016/j.celrep.2020.107928).
The full ranking holds about 81,000 sequences; the median of “one-hybrid fitness for binding parS DNA” is about -0.17, and the highest 2% start at about 0.51. This is one part of the list.

B1: Caulobacter ParB omega fusion; a variant is named by its letters at X, in order, B8GW30 (parent)
chain: MESVVVGEPGMSEGRRGLGRGLSALLGEVDAAPAQAPGEQLGGSREAPIEILQRNPDQPRRTFREEDLEDLSNSIREKGVLQPILVRPSPDTAGEYQIVAGERAWRAAQRAGLKTVPIMVRELDDLAVLEIGIIENVQRADLNVLEEALSYKVLMEKFERTQENIAQTIGKSXSHVANXMRLLXLPDEVQSYLVSGELTAXHARAIAAAADPVALAKQIIEGGLSVRETEALARKAPNLSAGKSKGGRPPRVKDTDTQALESDLSSVLGLDVSIDHRGSTGTLTITYATLEQLDDLCNRLTRGI

Variants of: B1
Assay: one-hybrid fitness for binding parS DNA (scaled: cognate 1, non-cognate 0); higher = stronger binding
Conditions: with parS DNA site
Outline: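 Bacterial one-hybrid selection in E. coli USO rpoZ- hisB- pyrF- with a HIS3 reporter carrying the site 19 bp from the promoter, screening Caulobacter ParB libraries with four specificity codons randomised (NNS). Cells grew 48 hours at 37°C on M9-minus-histidine plus 0.1 mM IPTG and 5 mM 3-AT. Plasmids before and after selection were Illumina-sequenced, three replicate libraries pooled, and variants under 10 reads dropped. Fitness is the log change in variant-to-wild-type read ratio, rescaled to cognate 1, non-cognate 0.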

one-hybrid fitness for binding parS DNA, 0.25:
RAVM

one-hybrid fitness for binding parS DNA, 1.03:
RLTG

one-hybrid fitness for binding parS DNA, 0.453:
RCSY

one-hybrid fitness for binding parS DNA, ≤ 0.2:
YVHD
PMQR
DTQG
TQGT
KTFR
KHVC
QHGA
SFML
HTGN
NERC
ATVD
ERVR
MSES
DTTP
HSEM
DSAP
QRKL
QTEF
LQAK
CARI
EHKE
QAKC
QRVL
CMFS
ITQS
LPRG
SQCV
DKMG
SQPT
DCVG
PESS
WRNA
CTMC
TPVR
KFPV
KSRA
QKLL
RNIF
LRLR
RRWE
NEYN
PTFC
QLQF
SRPK
VHAL
ELML
HGRV
PMPC
THCC
TGLD
QFGC
SRKG
MLQG
GRKT
CGSC
GHKA
YEPM
GVCS
TMLK
AKHY
QSYY
LMMS
QFKL
HVRK
WITR
QDHV
CPAE
LMEF
RLFI
WHYG
LFPR
YTFA

one-hybrid fitness for binding parS DNA, 0.241:
RCLK

one-hybrid fitness for binding parS DNA, 0.978:
RIFG
